Consider 2 molecules from PMC5062570 (Nature Communications, 2016).

Where “and” joins values, the source holds several entries; their conditions need not be identical. Identical values can stand only once.

Assay [1] addresses PF-7802-labelled proteins in ARPE-19 cells (Homo sapiens, UniProt Q96RQ3).
Assay [2] has as its target PF-7802-labelled proteins in ARPE-19 cells (Homo sapiens, UniProt P09429). As to conditions: protein HMGB1 High mobility group protein B1 (P09429); one column per replicate.
Chain of UniProt P09429 (P09429 whole entry): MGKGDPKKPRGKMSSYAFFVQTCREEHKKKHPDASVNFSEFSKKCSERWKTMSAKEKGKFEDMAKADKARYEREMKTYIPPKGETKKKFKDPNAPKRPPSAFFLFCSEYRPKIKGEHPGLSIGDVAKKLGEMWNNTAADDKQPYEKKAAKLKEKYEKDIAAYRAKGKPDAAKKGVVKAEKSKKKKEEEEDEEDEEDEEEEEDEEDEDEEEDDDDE
The target in assay [3] is PF-7802-labelled proteins in ARPE-19 cells (Homo sapiens, UniProt P06753). As to conditions: TPM3 Tropomyosin alpha-3 chain (P06753).
In assay [4] the target is PF-7802-labelled proteins in ARPE-19 cells (Homo sapiens, UniProt P50454). As to conditions: SERPINH1 Serpin H1 (P50454).
For assay [5], the target named is PF-7802-labelled proteins in ARPE-19 cells (Homo sapiens, UniProt P68133).
Assay [6] addresses PF-7802-labelled proteins in ARPE-19 cells (Homo sapiens, UniProt P50897). The settings on record: protein PPT1 Palmitoyl-protein thioesterase 1, P50897.
Assay [7] has as its target PF-7802-labelled proteins in ARPE-19 cells (Homo sapiens, UniProt P17096). The settings on record: protein HMGA1 High mobility group protein HMG-I/HMG-Y (P17096); one column per replicate.
Chain of UniProt P17096 (P17096 whole entry): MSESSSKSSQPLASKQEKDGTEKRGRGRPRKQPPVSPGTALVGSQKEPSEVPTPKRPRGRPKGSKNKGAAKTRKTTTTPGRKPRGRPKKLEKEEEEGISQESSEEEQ
Assay [8] concerns the target PF-7802-labelled proteins in ARPE-19 cells (Homo sapiens, UniProt Q12905). The settings on record: […]; one column per replicate.
Chain of UniProt Q12905 (Q12905 whole entry): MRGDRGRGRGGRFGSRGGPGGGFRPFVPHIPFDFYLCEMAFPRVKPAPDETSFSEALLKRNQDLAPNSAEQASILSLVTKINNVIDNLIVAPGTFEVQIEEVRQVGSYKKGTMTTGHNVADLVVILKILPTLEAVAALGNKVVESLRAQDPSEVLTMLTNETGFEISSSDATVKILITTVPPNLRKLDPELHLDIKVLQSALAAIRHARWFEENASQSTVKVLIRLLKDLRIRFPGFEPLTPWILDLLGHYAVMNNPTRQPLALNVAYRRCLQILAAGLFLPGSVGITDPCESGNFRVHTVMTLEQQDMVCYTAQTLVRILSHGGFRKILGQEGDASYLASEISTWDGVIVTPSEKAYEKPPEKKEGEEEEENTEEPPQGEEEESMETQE
The target in assay [9] is PF-7802-labelled proteins in ARPE-19 cells (Homo sapiens, UniProt O14983). As to conditions: protein ATP2A1 Sarcoplasmic/endoplasmic reticulum calcium ATPase 1 (O14983).
Chain of UniProt O14983 (O14983 whole entry): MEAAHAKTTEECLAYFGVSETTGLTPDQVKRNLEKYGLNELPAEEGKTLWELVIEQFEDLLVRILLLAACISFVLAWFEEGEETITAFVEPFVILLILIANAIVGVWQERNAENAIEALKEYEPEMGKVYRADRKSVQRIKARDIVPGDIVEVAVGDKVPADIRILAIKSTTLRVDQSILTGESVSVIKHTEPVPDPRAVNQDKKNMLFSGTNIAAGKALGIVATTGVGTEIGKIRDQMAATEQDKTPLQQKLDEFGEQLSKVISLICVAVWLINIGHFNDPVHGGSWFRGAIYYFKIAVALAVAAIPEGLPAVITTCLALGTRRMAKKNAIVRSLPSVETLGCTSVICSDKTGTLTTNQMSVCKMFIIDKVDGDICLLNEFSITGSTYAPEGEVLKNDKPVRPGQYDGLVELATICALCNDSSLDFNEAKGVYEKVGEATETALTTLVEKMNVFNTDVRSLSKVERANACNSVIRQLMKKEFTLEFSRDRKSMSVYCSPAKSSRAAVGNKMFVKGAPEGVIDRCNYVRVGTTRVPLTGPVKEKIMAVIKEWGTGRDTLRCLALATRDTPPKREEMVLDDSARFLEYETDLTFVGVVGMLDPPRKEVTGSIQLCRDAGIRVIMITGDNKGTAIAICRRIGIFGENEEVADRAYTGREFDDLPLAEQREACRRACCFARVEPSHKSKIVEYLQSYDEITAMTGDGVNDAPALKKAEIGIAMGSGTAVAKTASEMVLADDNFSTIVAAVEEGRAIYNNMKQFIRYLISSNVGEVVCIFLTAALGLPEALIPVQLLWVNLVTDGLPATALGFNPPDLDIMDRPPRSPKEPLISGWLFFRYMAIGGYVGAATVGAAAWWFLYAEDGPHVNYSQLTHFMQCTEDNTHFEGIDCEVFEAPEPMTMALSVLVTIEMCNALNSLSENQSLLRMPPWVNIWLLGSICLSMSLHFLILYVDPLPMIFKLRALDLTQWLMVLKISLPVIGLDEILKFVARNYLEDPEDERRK
Assay [10] addresses PF-7802-labelled proteins in ARPE-19 cells (Homo sapiens, UniProt Q5TB80). The settings on record: protein KIAA1009 Protein QN1 homolog (Q5TB80); one column per replicate.
Chain of UniProt Q5TB80 (Q5TB80 whole entry): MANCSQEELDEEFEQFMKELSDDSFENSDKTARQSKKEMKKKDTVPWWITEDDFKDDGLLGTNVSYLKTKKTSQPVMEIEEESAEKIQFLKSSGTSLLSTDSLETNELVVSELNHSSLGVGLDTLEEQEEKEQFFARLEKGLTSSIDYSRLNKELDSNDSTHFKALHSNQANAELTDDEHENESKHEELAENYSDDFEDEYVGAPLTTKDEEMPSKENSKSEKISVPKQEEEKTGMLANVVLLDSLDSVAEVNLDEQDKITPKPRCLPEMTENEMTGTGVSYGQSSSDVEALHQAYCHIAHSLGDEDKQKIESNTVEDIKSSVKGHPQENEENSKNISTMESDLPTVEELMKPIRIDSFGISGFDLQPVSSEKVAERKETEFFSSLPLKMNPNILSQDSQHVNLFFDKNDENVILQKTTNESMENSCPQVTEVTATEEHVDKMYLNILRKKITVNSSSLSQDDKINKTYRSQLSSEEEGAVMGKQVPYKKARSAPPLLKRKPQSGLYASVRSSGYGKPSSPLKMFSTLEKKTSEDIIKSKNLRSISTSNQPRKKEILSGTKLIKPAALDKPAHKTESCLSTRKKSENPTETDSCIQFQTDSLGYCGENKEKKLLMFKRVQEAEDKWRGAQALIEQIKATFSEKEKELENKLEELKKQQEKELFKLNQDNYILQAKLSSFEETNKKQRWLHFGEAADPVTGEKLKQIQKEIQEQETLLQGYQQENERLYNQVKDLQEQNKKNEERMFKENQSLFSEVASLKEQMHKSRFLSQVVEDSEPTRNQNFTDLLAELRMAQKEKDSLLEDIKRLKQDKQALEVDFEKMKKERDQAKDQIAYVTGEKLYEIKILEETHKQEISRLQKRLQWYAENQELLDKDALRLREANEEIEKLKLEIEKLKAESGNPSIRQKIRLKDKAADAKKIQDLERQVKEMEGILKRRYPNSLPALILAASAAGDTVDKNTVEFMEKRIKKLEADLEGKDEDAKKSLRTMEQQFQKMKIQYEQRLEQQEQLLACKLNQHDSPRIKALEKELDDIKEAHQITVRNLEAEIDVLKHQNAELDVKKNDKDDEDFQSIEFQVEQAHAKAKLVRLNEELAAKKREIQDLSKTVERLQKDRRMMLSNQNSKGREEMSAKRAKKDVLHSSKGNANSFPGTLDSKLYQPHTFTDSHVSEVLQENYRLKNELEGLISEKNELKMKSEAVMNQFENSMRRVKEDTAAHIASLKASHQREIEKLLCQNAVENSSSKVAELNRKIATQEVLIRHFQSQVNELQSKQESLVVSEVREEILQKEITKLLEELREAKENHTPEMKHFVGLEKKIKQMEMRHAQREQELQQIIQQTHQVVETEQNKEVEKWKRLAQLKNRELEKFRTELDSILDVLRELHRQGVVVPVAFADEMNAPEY
The target in assay [11] is PF-7802-labelled proteins in ARPE-19 cells (Homo sapiens, UniProt P11310). The settings on record: protein ACADM Medium-chain specific acyl-CoA dehydrogenase, mitochondrial (P11310).
Assay [12] addresses PF-7802-labelled proteins in ARPE-19 cells (Homo sapiens, UniProt Q5VTJ3). As to conditions: protein KLHDC7A Kelch domain-containing protein 7A (Q5VTJ3); one column per replicate.
Assay [13] concerns the target PF-7802-labelled proteins in ARPE-19 cells (Homo sapiens, UniProt P07910). The settings on record: protein HNRNPC Heterogeneous nuclear ribonucleoproteins C1/C2 (P07910); one column per replicate.
Chain of UniProt P07910 (P07910 whole entry): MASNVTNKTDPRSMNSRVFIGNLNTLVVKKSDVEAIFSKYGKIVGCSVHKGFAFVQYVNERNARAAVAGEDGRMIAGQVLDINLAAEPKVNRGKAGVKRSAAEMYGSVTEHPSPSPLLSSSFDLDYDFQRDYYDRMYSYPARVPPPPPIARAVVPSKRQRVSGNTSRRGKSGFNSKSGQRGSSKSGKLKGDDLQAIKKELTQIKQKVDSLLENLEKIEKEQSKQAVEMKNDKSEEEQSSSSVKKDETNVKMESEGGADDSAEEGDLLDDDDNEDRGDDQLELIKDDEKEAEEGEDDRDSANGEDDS
Assay [14] has as its target PF-7802-labelled proteins in ARPE-19 cells (Homo sapiens, UniProt O95831). As to conditions: protein AIFM1 Apoptosis-inducing factor 1, mitochondrial (O95831).
The target of assay [15] is PF-7802-labelled proteins in ARPE-19 cells (Homo sapiens, UniProt Q3ZCQ8). The settings on record: TIMM50 Mitochondrial import inner membrane translocase subunit TIM50 (Q3ZCQ8).
Assay [16] has as its target PF-7802-labelled proteins in ARPE-19 cells (Homo sapiens, UniProt Q13162). The settings on record: protein PRDX4 Peroxiredoxin-4, Q13162.
The target of assay [17] is PF-7802-labelled proteins in ARPE-19 cells (Homo sapiens, UniProt Q9HDC9). As to conditions: protein APMAP Adipocyte plasma membrane-associated protein (Q9HDC9).
Chain of UniProt Q9HDC9 (Q9HDC9 whole entry): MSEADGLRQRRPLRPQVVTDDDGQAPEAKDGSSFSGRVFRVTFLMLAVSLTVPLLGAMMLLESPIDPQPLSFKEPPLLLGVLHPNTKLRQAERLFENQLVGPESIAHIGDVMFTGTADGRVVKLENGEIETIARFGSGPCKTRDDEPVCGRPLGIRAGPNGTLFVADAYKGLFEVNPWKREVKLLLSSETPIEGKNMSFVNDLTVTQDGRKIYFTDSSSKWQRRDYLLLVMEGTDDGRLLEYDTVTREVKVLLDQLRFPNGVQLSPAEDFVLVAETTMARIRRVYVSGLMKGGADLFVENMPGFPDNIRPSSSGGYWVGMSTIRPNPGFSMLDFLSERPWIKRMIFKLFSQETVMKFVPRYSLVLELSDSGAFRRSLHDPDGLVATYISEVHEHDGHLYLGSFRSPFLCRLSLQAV
Assay [18] deals with PF-7802-labelled proteins in ARPE-19 cells (Homo sapiens, UniProt Q6NZI2). As to conditions: protein PTRF Polymerase I and transcript release factor, Q6NZI2.
Assay [19] has as its target PF-7802-labelled proteins in ARPE-19 cells (Homo sapiens, UniProt Q9BQB6). As to conditions: protein VKORC1 Vitamin K epoxide reductase complex subunit 1 (Q9BQB6); replicate R2.
Chain of UniProt Q9BQB6 (Q9BQB6 whole entry): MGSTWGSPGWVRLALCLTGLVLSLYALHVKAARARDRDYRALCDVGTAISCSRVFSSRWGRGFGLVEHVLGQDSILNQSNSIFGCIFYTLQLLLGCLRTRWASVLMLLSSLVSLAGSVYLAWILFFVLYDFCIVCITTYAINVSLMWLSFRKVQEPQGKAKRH
Assay [20] concerns the target PF-7802-labelled proteins in ARPE-19 cells (Homo sapiens, UniProt O75915). The settings on record: protein ARL6IP5 PRA1 family protein 3 (O75915).
Chain of UniProt O75915 (O75915 whole entry, the tested form may be a part): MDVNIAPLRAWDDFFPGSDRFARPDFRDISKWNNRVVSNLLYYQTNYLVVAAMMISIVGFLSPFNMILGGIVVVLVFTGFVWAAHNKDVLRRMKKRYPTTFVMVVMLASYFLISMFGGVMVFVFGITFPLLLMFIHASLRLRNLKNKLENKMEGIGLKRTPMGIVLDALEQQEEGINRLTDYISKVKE
In assay [21] the target is PF-7802-labelled proteins in ARPE-19 cells (Homo sapiens, UniProt Q8NBS9). As to conditions: TXNDC5 Thioredoxin domain-containing protein 5 (Q8NBS9).
Assay [22] deals with PF-7802-labelled proteins in ARPE-19 cells (Homo sapiens, UniProt O75947). As to conditions: protein ATP5H ATP synthase subunit d, mitochondrial (O75947).
Chain of UniProt O75947 (O75947 whole entry): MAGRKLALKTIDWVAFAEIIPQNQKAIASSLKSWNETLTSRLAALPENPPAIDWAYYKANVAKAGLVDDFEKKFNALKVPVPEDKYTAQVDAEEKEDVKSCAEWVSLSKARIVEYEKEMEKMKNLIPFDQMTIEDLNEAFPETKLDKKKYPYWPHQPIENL
Assay [23] addresses PF-7802-labelled proteins in ARPE-19 cells (Homo sapiens, UniProt P39019). The settings on record: protein RPS19 40S ribosomal protein S19, P39019.
The target in assay [24] is PF-7802-labelled proteins in ARPE-19 cells (Homo sapiens, UniProt Q14764). As to conditions: protein MVP Major vault protein (Q14764); replicates in separate columns.
In assay [25] the target is PF-7802-labelled proteins in ARPE-19 cells (Homo sapiens, UniProt P55265). As to conditions: protein ADAR Double-stranded RNA-specific adenosine deaminase (P55265).
Assay [26] concerns the target PF-7802-labelled proteins in ARPE-19 cells (Homo sapiens, UniProt P08574). As to conditions: protein CYC1 Cytochrome c1, heme protein, mitochondrial (P08574).
Assay [27] concerns the target PF-7802-labelled proteins in ARPE-19 cells (Homo sapiens, UniProt P19012). As to conditions: protein KRT15 Keratin, type I cytoskeletal 15 (P19012); one column per replicate.
Chain of UniProt P19012 (P19012 whole entry): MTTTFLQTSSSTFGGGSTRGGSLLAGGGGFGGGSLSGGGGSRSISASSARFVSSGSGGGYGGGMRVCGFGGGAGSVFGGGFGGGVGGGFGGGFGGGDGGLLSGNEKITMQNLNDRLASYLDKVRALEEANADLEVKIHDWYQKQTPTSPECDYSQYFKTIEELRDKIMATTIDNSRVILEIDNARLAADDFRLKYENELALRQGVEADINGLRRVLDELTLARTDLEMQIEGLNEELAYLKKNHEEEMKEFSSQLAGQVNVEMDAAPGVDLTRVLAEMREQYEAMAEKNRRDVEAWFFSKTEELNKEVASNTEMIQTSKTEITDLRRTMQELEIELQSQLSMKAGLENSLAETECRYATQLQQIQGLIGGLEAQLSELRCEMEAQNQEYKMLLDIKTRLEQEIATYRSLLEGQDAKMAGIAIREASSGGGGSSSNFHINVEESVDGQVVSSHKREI

In the case of `CNC1CCN(C(=O)C[C@@H](Cc2ccccc2)C(=O)N[C@@H](CSC)C(=O)N[C@@H](CC2CCCCC2)[C@@H](O)C(=O)OC(C)C)CC1` [CP-108671, reference compound], the “SILAC ratio (DMSO/CP-108671)” value in assay [1] (Q96RQ3 MCCC1 Methylcrotonoyl-CoA carboxylase subunit alpha, mitochondrial) is given as 0.86; in assay [5] (P68133 ACTA1 Actin, alpha skeletal muscle) it was 0.81. The “Median SILAC Ratio (Heavy/Light)” value in assay [1] (protein MCCC1 Methylcrotonoyl-CoA carboxylase subunit alpha, mitochondrial (Q96RQ3), replicates in separate columns) is listed as 1.161; in [2], 2.053; in [3] it was 1.679; in assay [4], 1.405; in assay [5] (protein ACTA1 Actin, alpha skeletal muscle (P68133)) it was 1.236; in assay [6], 0.8353. Besides, in assay [7], the “Median SILAC Ratio (Heavy/Light)” value came out at 1.132.

Consider `Cc1cc([C@H]2C[C@H]3[C@@H](C)SC(N)=N[C@@]3(c3ccc(F)cc3F)CO2)on1` [PF-9283], for which the “Median SILAC Ratio (Heavy/Light)” value is 1.336 in [8]; 1.378 in assay [9]; 1.33 in assay [10]; 2.337 in assay [11]; 0.6479 in [12]; 1.289 and 2.223 in [13]. For the same molecule, the “Median SILAC Ratio (Heavy/Light)” value in [14] came to 1.067; in [15], 1.63; in [16], 1.405; in assay [17], 1.173; in assay [18] it was 1.575; in assay [19], 0.967. Further, the “Median SILAC Ratio (Heavy/Light)” value in assay [20] was 0.1602; in assay [21], 1.396 and 0.8034; in assay [22], 1.8; in assay [23] it was 1.212; in assay [24] it was 1.786; in assay [25], 1.375. The “Median SILAC Ratio (Heavy/Light)” value in assay [26] is 1.424; in assay [27], 30.6527 and 74.3333.
